In paper PMC4401446, “Structural Effects of Protein Aging: Terminal Marking by Deamidation in Human Triosephosphate Isomerase” (PLoS ONE, 2015):

Target: the molecule itself
Experiment: SEC; protein at 500 ug/mL incubated 3 hours at 30°C, then Superdex 75 in 50 mM Tris-HCl pH 8.0, 150 mM NaCl, 5% (v/v) glycerol, calibrated with molecular mass standards; dimer to monomers

B1: human triosephosphate isomerase, wild type (enzyme)
chain: not shown
notes: Triosephosphate isomerase, human; the WT HsTIM gene subcloned into pET-HisTEVP (NdeI/BamHI); also called HsTIM; WT HsTIM; source: E. coli BL21-CodonPlus (DE3)-RIL, purified (IMAC, TEVP cleavage, second IMAC); not shown: His6, N-terminal, cleaved
stoichiometry N: 2
